Reference: the supplement of paper PMC12217912
The list shows a part of the results. The full chains were built here from the parent and the listed change. Values near 0.05 are background.

B1: TEV protease; numbered along this chain (parent)
chain: MGESLFKGPRDYNPISSSICHLTNESDGHTTSLYGIGFGPFIITNKHLFRRNNGTLVVQSLHGVFKVKDTTTLQQHLVDGRDMIIIRMPKDFPPFPQKLKFREPQREERICLVTTNFQTKSMSSMVSDTSCTFPSGDGIFWKHWIQTKDGQCGSPLVSTRDGFIVGIHSASNFTNTNNYFTSVPKNFMELLTNQEAQQWVSGWRLNADSVLWGGHKVFMVKPEEPFQPVKEATQL

Variants of: B1
Experiment: raw area under fraction-flipped curve 0-4 h after induction (AUC4h, not background-subtracted), DNA-recorder readout of cleavage of the substrate (dimensionless); higher = more cleavage of the substrate by the protease variant
Conditions: temperature: 34 °C; time window: 0-4 h after rhamnose induction
Experimental: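 In vivo DNA recorder in E. coli TOP10(DE3) ΔrhaA at 34 °C. Each TEVp single-site mutant (parent TEVp 0) is paired with a single-site variant of the 7-mer TEVs (canonical ENLYFQ|S). The substrate sits between flexible linkers in a Bxb1-sfGFP-TEVs-SsrA fusion, so cleavage stabilises Bxb1 and speeds flipping of a recombination array, read by NGS. The value is the raw area under the fraction-flipped curve over 0-4 h after rhamnose induction (AUC4h), with ≥20 reads per time point. It is not background-subtracted; inactive controls average about 0.047.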
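Note: Bxb1 expression induced with 0.2% (w/v) L-rhamnose at OD600 near 0.5, cultures sampled hourly, flipped fraction per protease–substrate barcode pair counted by paired-end Illumina sequencing.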

Variant | area with substrate ENLYAQS | area with substrate ENLYDQS | area with substrate ENLYEQS | area with substrate ENLYGQS | area with substrate ENLYHQS | area with substrate ENLYIQS | area with substrate ENLYKQS | area with substrate ENLYMQS | area with substrate ENLYNQS | area with substrate ENLYPQS | area with substrate ENLYQQS | area with substrate ENLYRQS | area with substrate ENLYSQS | area with substrate ENLYTQS | area with substrate ENLYWQS | area with substrate ENLYYQS | area with substrate ENLYVQS | area with substrate ENLYLQS | area with substrate ENLYCQS
MGESLFKGPRDYNPISSSICHLTNESDGHTTSLYGIGFGPFIITNKHLFRRNNGTLVVQSLHGVFKVKDTTTLQQHLVDCRDMIIIRMPKDFPPFPQKLKFREPQREERICLVTTNFQTKSMSSMVSDTSCTFPSGDGIFWKHWIQTKDGQCGSPLVSTRDGFIVGIHSASNFTNTNNYFTSVPKNFMELLTNQEAQQWVSGWRLNADSVLWGGHKVFMVKPEEPFQPVKEATQL [G80C] | 0.0645 | 0.0589 | 0.0659 | 0.0638 | 0.0974 | 0.113 | 0.0539 | 0.08 | 0.0704 | 0.0668 | 0.0406 | 0.0557 | 0.0746 | 0.0728 | 0.0874 | 0.0559 | – | – | –
MGESLFKGPRDYNPICSSICHLTNESDGHTTSLYGIGFGPFIITNKHLFRRNNGTLVVQSLHGVFKVKDTTTLQQHLVDGRDMIIIRMPKDFPPFPQKLKFREPQREERICLVTTNFQTKSMSSMVSDTSCTFPSGDGIFWKHWIQTKDGQCGSPLVSTRDGFIVGIHSASNFTNTNNYFTSVPKNFMELLTNQEAQQWVSGWRLNADSVLWGGHKVFMVKPEEPFQPVKEATQL [S16C] | 0.0659 | 0.072 | 0.0678 | 0.0691 | 0.0671 | 0.122 | 0.0622 | 0.0806 | 0.0761 | 0.0593 | 0.0594 | 0.0501 | 0.0841 | 0.0954 | 0.0841 | 0.072 | 0.117 | – | –
MGESLFKGPRDYNPISSSICHLTNESDGHTTSLYGIGFGPFIITNKHLFRRNNGTLVVQSLHGVFKVKDTTTLQQHLVDGRDMIIIRMPKDFPPFSQKLKFREPQREERICLVTTNFQTKSMSSMVSDTSCTFPSGDGIFWKHWIQTKDGQCGSPLVSTRDGFIVGIHSASNFTNTNNYFTSVPKNFMELLTNQEAQQWVSGWRLNADSVLWGGHKVFMVKPEEPFQPVKEATQL [P96S] | 0.0498 | 0.0651 | 0.0792 | 0.0576 | 0.0639 | – | 0.0379 | 0.0627 | – | 0.0819 | 0.0611 | 0.0712 | – | – | – | 0.0506 | 0.125 | 0.0874 | –
MGESLFKGPRDYNPISSSICHLTNESDGHTTSLYGIGFGPFIITNKHGFRRNNGTLVVQSLHGVFKVKDTTTLQQHLVDGRDMIIIRMPKDFPPFPQKLKFREPQREERICLVTTNFQTKSMSSMVSDTSCTFPSGDGIFWKHWIQTKDGQCGSPLVSTRDGFIVGIHSASNFTNTNNYFTSVPKNFMELLTNQEAQQWVSGWRLNADSVLWGGHKVFMVKPEEPFQPVKEATQL [L48G] | 0.0569 | 0.0599 | 0.0659 | 0.0639 | 0.0514 | 0.0635 | 0.0628 | 0.0668 | 0.0579 | 0.0559 | 0.0852 | 0.0627 | – | 0.0696 | 0.0664 | 0.0547 | – | – | –
MGESLFKGPRDYNPISSSICHLTNESDGHCTSLYGIGFGPFIITNKHLFRRNNGTLVVQSLHGVFKVKDTTTLQQHLVDGRDMIIIRMPKDFPPFPQKLKFREPQREERICLVTTNFQTKSMSSMVSDTSCTFPSGDGIFWKHWIQTKDGQCGSPLVSTRDGFIVGIHSASNFTNTNNYFTSVPKNFMELLTNQEAQQWVSGWRLNADSVLWGGHKVFMVKPEEPFQPVKEATQL [T30C] | 0.0717 | 0.0772 | 0.0503 | 0.0647 | 0.0679 | 0.162 | 0.0681 | 0.0728 | 0.0658 | 0.0715 | 0.0701 | 0.0587 | 0.0758 | – | 0.0803 | 0.0515 | 0.119 | – | 0.0914
MGESLFKGPRDYNPISSSICHLTNESDGHTTSLYGIGFGPFIITNKHLFRRNNGTLVVQSLHGVFKVKDTTTLQQHLVDGRDMIIIRMPKDFPPFPQKLKFREPQREERICLVTTNFQTKSMSSMVSDTSCTFPSGDGIFWKHWIQTKDGQCGSPLVSTRDGFIVGIHSASNFTNTNNYFTSVPKNFMELLTNQEAQQWVSGWRLNADSVLWGGHKVFMVKPEEPFQPVKECTQL [A232C] | 0.0663 | – | – | 0.0441 | 0.0425 | 0.103 | 0.0633 | – | – | 0.0832 | – | 0.0555 | 0.0643 | – | – | 0.0587 | 0.115 | – | 0.0765
MGESLFKGPRDYNPISSSICHLTNESDGHTTSLYGIGFGPFIITNKHLFRRNNGTLVVQSLHGVFKVKDTTTLQQHLVDGTDMIIIRMPKDFPPFPQKLKFREPQREERICLVTTNFQTKSMSSMVSDTSCTFPSGDGIFWKHWIQTKDGQCGSPLVSTRDGFIVGIHSASNFTNTNNYFTSVPKNFMELLTNQEAQQWVSGWRLNADSVLWGGHKVFMVKPEEPFQPVKEATQL [R81T] | 0.0748 | 0.0696 | 0.0674 | 0.0669 | 0.0639 | 0.0665 | 0.0595 | 0.0685 | 0.0627 | 0.0606 | – | 0.0743 | 0.055 | – | 0.0586 | 0.0597 | 0.0681 | – | –
MGESLFKGPRDYNPISSSICHLTNESDGHTTSLYGIGFGPFIITNKHLFRRNNGTLVVQSLHGVFKVKDTTTLQQHLVDGRDMIIIRMPKDFPPFPQKLKFREPQREERICLVTTNFQTKSMSSMVSDTSCTFPSGDGIFWKHWIQTKDGQCGSPLVSTRDGFIVGIHSASNFTNTNNYFTSVHKNFMELLTNQEAQQWVSGWRLNADSVLWGGHKVFMVKPEEPFQPVKEATQL [P184H] | 0.0042 | 0.0617 | 0.0672 | 0.0556 | 0.0598 | 0.0873 | 0.0614 | 0.07 | 0.0436 | 0.0697 | – | 0.0708 | 0.0612 | 0.0545 | – | – | 0.0933 | – | –
MGESLFKGPRDYNPISSSICHLTNESDGHTTSLYGIGFGPFIITNKHLFRRNNGTLVVQSLHGVFKVKDTTTLQQHLVDGRDMIIIRMPKDFPPFPQKLKFREPQREERICLVTTNFQTKSMSSMVSDTSCTFPSGDGIFWKHWIQTKDGQCGSPLVSTRDGFIVGIHSASNFTNTNNYFTSVPKNFMELLTNQEAQQWVSGWHLNADSVLWGGHKVFMVKPEEPFQPVKEATQL [R204H] | 0.0632 | 0.0563 | 0.072 | – | 0.0697 | 0.0815 | 0.056 | 0.0772 | 0.0612 | 0.0662 | 0.054 | – | 0.075 | 0.0866 | 0.0982 | 0.0741 | 0.117 | – | –
